Assay results reported in PubChem BioAssay AID1508624 (National Center for Advancing Translational Sciences (NCATS), 2021).
In all, about 48,000 compounds went through this assay and about 120 (0.25%) were called active. Not shown: some 4% with an inconclusive outcome. Calls follow the shape of the dose curve; as a rule, active = well fitted activation curve with a large enough effect; inconclusive = small, poorly fitted or top-dose-only effect, or another doubt; inactive = no such curve, though single readings can be large or run the other way. The list shows a part of the results.

Assay: Primary qHTS for Identification of Small Molecule Activators of Huntingtin-Antisense Promoter Activity; also: nearly all actives have a fitted effect of over 55% in size
Conditions: HEK293 HTT-AS promoter firefly luciferase reporter (activity 0% = vehicle and -100% = no light), 24 h; series mostly up to 57.5 µM; activity change, positive = activation: at the top concentration
Procedure, shortened: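 Quantitative HTS used concentration series of up to 57.5 uM final on HEK293 luciferase reporter cells, 24 h at 37 degrees C. Readout was Dual-Glo firefly luminescence.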

Activity change, positive = activation, inactive:
COc1ccccc1OCCn1c(-c2ccc(Cl)cc2)nc2ccccc2c1=O -0.888%
Cc1oc2ccc(O)c(CN(C)Cc3ccccc3)c2c1C(=O)Nc1cccc(C(F)(F)F)c1 -55.6%
COc1ccc(C(=O)c2cn(CC(=O)Nc3ccc4c(c3)OCCO4)c3ccc(OC)cc3c2=O)cc1 -25.7%
COc1cc(NC(=O)Cn2c(=O)oc3cc(S(=O)(=O)N4CCCCCC4)ccc32)cc(OC)c1 -34.4%
O=C(CSc1nc(-c2ccccc2)no1)N1CCN(c2ccccc2F)CC1 -9.1%
COc1cccc(C2=CC(c3ccc(OC)c(OC)c3OC)n3ncnc3N2)c1 (stereo not given) 3.1%
CCN(C(=O)Cc1nc(-c2ccc(OC)cc2)no1)c1cccc(Cl)c1 -24.1%
O=C(Cn1c(=O)nc(-c2ccccc2)c2ccccc21)Nc1ccc(Cl)c(C(F)(F)F)c1 -3.93%
Cc1nc(-c2ccccc2)sc1-c1ccc(SCC(=O)NCc2ccc(F)cc2)nn1 -7.68%
Cn1c(=O)c2c(SCC(=O)N3CCc4ccccc43)nc(-c3ccccc3Cl)nc2n(C)c1=O -4.92%
Cc1ccc(C(C)C)c(OCC(=O)Nc2cccc(NC(=O)c3ccco3)c2)c1 -46.8%
Cc1ccc(-c2nc3cccnc3s2)cc1NC(=O)C(C)C -1.08%
Cc1ccc(-c2ccc(=O)n(Cc3cc(C)ccc3C)n2)cc1 -38.5%
CC1=Nc2cc(C(=O)NCCc3ccc(Cl)cc3)ccc2Sc2ccc(C)cc21 -34.7%
CCC(CC)C(=O)NC1CC(=O)N(c2ccc3c(c2)OCCO3)C1 (stereo not given) -17.9%
Clc1ccc(-c2nc3sccn3c2C=NOCc2ccc(Cl)c(Cl)c2)cc1 -6.5%
CCOc1ccc(-n2c(SCC(=O)N3CCCC3)nc3c([nH]c4ccccc43)c2=O)cc1 -10.7%
COC(=O)C(Cc1c[nH]c2ccccc12)NC(=O)COc1ccc(Cl)cc1Cl (stereo not given) -24.3%
CCN(c1cc(C)cc(C)c1)S(=O)(=O)c1nnc(NC(=O)c2cccs2)s1 -20.7%
CCOc1ccc(-n2c(CCC(=O)O)ccc2-c2ccc(Br)cc2)cc1 13.3%
CCc1ccc(NC(=O)C(=O)NCCc2csc(-c3ccc(C(F)(F)F)cc3)n2)cc1 7.58%
Cc1cc(C)c(NC(=O)Cn2c(=O)n(Cc3ccc4c(c3)OCO4)c(=O)c3ccc(C(=O)NC4CCCCC4)cc32)c(C)c1 -10.6%
O=C(NCc1ccccc1F)c1ccc(CN2CC(=O)N3CCCCC3C2=O)cc1 (stereo not given) -7.74%
COc1cccc(C(=O)N2c3cc(C)ccc3C(C)(c3ccccc3)CC2(C)C)c1 (stereo not given) -26.2%
N#C/C(=C\c1ccc(Cl)cc1)c1nc(-c2cc3ccccc3oc2=O)cs1 2.88%
CCOC(=O)c1sc2cccc(F)c2c1S(=O)(=O)N1CCN(c2cccc(Cl)c2)CC1 -28.1%
CCCn1c2ccccc2c2cnn(CC(=O)N3CCC(C)CC3)c(=O)c21 -11.9%
CCc1ccc(CNC(=O)c2cnc3sc4cc(OC)ccc4n3c2=O)cc1 -3.2%
Cc1cccc(C)c1Nc1sc(C(=O)c2ccccc2)c(N)c1C(=O)Nc1ccc(F)cc1 -20.3%
COc1cccc(-c2ccc3c(N)c(C(=O)c4ccc(Cl)cc4)sc3n2)c1 -15.9%
CCC(C)NC(=O)Cn1ncc2c([nH]c3ccc(C)cc32)c1=O (stereo not given) -24.6%
CCOc1ccccc1NC(=O)Cn1c(=O)n(Cc2ccccc2)c(=O)c2c(C)c(C)sc21 -11.5%
CCc1cccc(NC(=O)Cn2nc(-c3ccc(OC)cc3)ccc2=O)c1 -4.9%
O=C(Nc1nc2n(n1)C(c1ccccc1)C=C(c1ccccc1)N2)c1ccc(Cl)c([N+](=O)[O-])c1 (stereo not given) -9.8%
CCOC(=O)c1ccc(N2C(=O)c3n[nH]c(-c4cccs4)c3C2c2ccc(C(C)(C)C)cc2)cc1 (stereo not given) -23.2%
CCOC(=O)c1[nH]c(C)c(CCC(=O)NCc2ccc(OCC)cc2)c1C -6.98%
Cc1ccc(NC(=O)c2c(C)oc3ccc(O)c(CN4CCCCCC4)c23)c(C)c1 -22.8%
CC(C)OCCCNC(=O)c1cc2c(-c3ccc(Cl)cc3)nn(C)c2s1 -38.3%
COc1cc(NC(=O)C2CCCN(S(=O)(=O)c3ccc4c(c3)oc(=O)n4C)C2)c(C(=O)O)cc1OC (stereo not given) -3.85%
CCCCC(Sc1nc2cc3c(cc2c(=O)n1CCCC(=O)NCc1ccc(OC)cc1)OCO3)C(=O)OCC (stereo not given) -22.9%
CC(C(=O)NCc1ccccc1F)n1ccc2cc(S(=O)(=O)N3CCCC3)ccc21 (stereo not given) -4.92%
CCOc1ccccc1NC(=O)c1c(NC(=O)c2cccc(C)c2)sc2c1CCCC2 -12.5%
CCc1ccccc1NC(=O)Nc1cc(C(=O)NCc2ccc(C)cc2)ccc1N1CCCC1 3.25%
CC1CN(C(=O)Nc2ccc(C(=O)NCc3cccc(F)c3)cc2)c2ccccc2S1 (stereo not given) -14.7%
O=C(Nc1ccccc1Cl)N1CCC(CN2CCCCC2)CC1 6.87%
O=C(Nc1ccc(C(F)(F)F)cc1)C1CCCN(c2cnccn2)C1 (stereo not given) -11%
O=c1c(S(=O)(=O)c2ccccc2)cn(Cc2ccccc2)c2cc(N3CCOCC3)c(F)cc12 -29.8%
C[C@H]1[C@H]2CC[C@H]3[C@@H]4CC=C5C[C@@H](N(C)C)CC[C@]5(C)[C@H]4CC[C@]23CN1C -12.9%
COc1ccc(Nc2ncc3c(n2)CCN(Cc2cc(Br)cs2)C3)c(OC)c1 -5.6%
CC(C)C(=O)c1c(C(C)C)nn2ccccc12 -3.92%
COc1ccccc1NC(=O)c1cc2c(=O)oc3ccc(C)cc3c2s1 -11.9%
Cc1ccc(NC(=O)CSc2nc3c(oc4ccccc43)c(=O)n2-c2ccc(F)cc2)c(C)c1 -27.4%
CCCCOc1ccccc1C(=O)N(Cc1ccc(C)o1)C1CCS(=O)(=O)C1 (stereo not given) -9.72%
O=C(O)CSc1c2c(nc3cc(C(=O)Nc4ccc(F)c(Cl)c4)ccc13)CCC2 -30.8%
Cn1nc(-c2ccc(C(=O)Nc3ccc(F)cc3)cc2)c2ccccc2c1=O -43%
COCCCNC(=O)CCCCn1c(=O)c2ccccc2n(CC(=O)Nc2ccc(C)cc2C)c1=O -23%
C=Cc1ccc(Cn2nc(-c3ccc(C)c(S(=O)(=O)N(CC)CC)c3)ccc2=O)cc1 -21.2%
COc1ccc2cc(-c3nc4ccc(C(=O)O)cc4[nH]3)c(=O)oc2c1 -79.7%
Cc1cccn2c(=O)c3cc(C#N)c(=O)n(-c4nnc(SCc5ccccc5F)s4)c3nc12 -0.155%
CC(C)c1ccc(S(=O)(=O)NCc2ccc3c(c2)CCN3C(=O)c2ccccc2)cc1 -27.4%
